From a collection of fitness landscapes (doi:10.1016/j.celrep.2020.107928)
The full ranking holds about 81,000 sequences; the median of “one-hybrid fitness for binding NBS DNA” is about -0.1, and the highest 2% start at about 0.36. Some of the results follow.

B1: Caulobacter ParB omega fusion; a variant is named by its letters at X, in order, B8GW30 (parent)
chain: MESVVVGEPGMSEGRRGLGRGLSALLGEVDAAPAQAPGEQLGGSREAPIEILQRNPDQPRRTFREEDLEDLSNSIREKGVLQPILVRPSPDTAGEYQIVAGERAWRAAQRAGLKTVPIMVRELDDLAVLEIGIIENVQRADLNVLEEALSYKVLMEKFERTQENIAQTIGKSXSHVANXMRLLXLPDEVQSYLVSGELTAXHARAIAAAADPVALAKQIIEGGLSVRETEALARKAPNLSAGKSKGGRPPRVKDTDTQALESDLSSVLGLDVSIDHRGSTGTLTITYATLEQLDDLCNRLTRGI

Variants of: B1
Test: one-hybrid fitness for binding NBS DNA (the Noc-binding site; scaled: cognate 1, non-cognate 0); higher = stronger binding
Conditions: with NBS DNA site
In short: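 Selection: bacterial one-hybrid in E. coli USO, HIS3 reporter with the site 19 bp from the promoter, 48 hours at 37°C on M9-minus-histidine plus 0.1 mM IPTG and 5 mM 3-AT. Libraries were Caulobacter ParB with four randomised specificity codons, sequenced on Illumina before and after selection. Fitness is the rescaled log change in variant-to-wild-type read ratio, anchored to the cognate and non-cognate sites.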

Row | Variant | one-hybrid fitness for binding NBS DNA
1 | VSHS | ≤ 0.2
2 | RQCA | ≤ 0.2
3 | SPME | ≤ 0.2
4 | NIRF | ≤ 0.2
5 | KTSV | ≤ 0.2
6 | LAGP | ≤ 0.2
7 | LVSA | ≤ 0.2
8 | HRQR | ≤ 0.2
9 | YTFR | ≤ 0.2
10 | DMRV | ≤ 0.2
11 | EGMW | ≤ 0.2
12 | ASKK | ≤ 0.2
13 | WTES | ≤ 0.2
14 | PTVT | ≤ 0.2
15 | KRRH | 0.422
16 | KNKT | ≤ 0.2
17 | RCQE | ≤ 0.2
18 | GFDT | ≤ 0.2
19 | GFLM | ≤ 0.2
20 | QNCP | ≤ 0.2
21 | QICF | ≤ 0.2
22 | EASA | ≤ 0.2
23 | QIEC | ≤ 0.2
24 | RKSH | 0.211
25 | HCNH | ≤ 0.2
26 | TTND | ≤ 0.2

Row | Variant | one-hybrid fitness for binding NBS DNA
27 | SYIS | ≤ 0.2
28 | SKPC | ≤ 0.2
29 | AVAT | ≤ 0.2
30 | QVSR | 0.38
31 | LLAG | ≤ 0.2
32 | FHRG | ≤ 0.2
33 | VINC | ≤ 0.2
34 | TGAR | ≤ 0.2
35 | LRIS | ≤ 0.2
36 | NSSE | ≤ 0.2
37 | SIKV | ≤ 0.2
38 | YGRY | ≤ 0.2
39 | CCPR | ≤ 0.2
40 | HAYG | ≤ 0.2
41 | KDPE | ≤ 0.2
42 | EQLC | ≤ 0.2
43 | FKMS | ≤ 0.2
44 | PVHG | ≤ 0.2
45 | VSPV | ≤ 0.2
46 | RLKL | ≤ 0.2
47 | VPTC | ≤ 0.2
48 | QKCG | ≤ 0.2
49 | LRQA | ≤ 0.2
50 | QRET | 0.603
51 | DDYY | ≤ 0.2
52 | IILC | ≤ 0.2

Row | Variant | one-hybrid fitness for binding NBS DNA
53 | NWVT | ≤ 0.2
54 | WFHT | ≤ 0.2
55 | HVQT | ≤ 0.2
56 | GYRK | ≤ 0.2
57 | QSMD | ≤ 0.2
58 | FRRT | ≤ 0.2
59 | AYSW | ≤ 0.2
60 | LNRL | ≤ 0.2
61 | PVGL | ≤ 0.2
62 | RRQE | ≤ 0.2
63 | PQTH | ≤ 0.2
64 | DDRR | ≤ 0.2
65 | ATIE | ≤ 0.2
66 | STSA | ≤ 0.2
67 | ARGP | ≤ 0.2
68 | YAKS | ≤ 0.2
69 | WSEG | ≤ 0.2
70 | MPHL | ≤ 0.2
71 | EKYC | ≤ 0.2
72 | NHHG | ≤ 0.2
73 | SDTM | ≤ 0.2
74 | YQCS | ≤ 0.2
75 | SMNI | ≤ 0.2
76 | FTVL | ≤ 0.2
77 | NSAI | ≤ 0.2
78 | IRQR | 0.286

Row | Variant | one-hybrid fitness for binding NBS DNA
79 | PILN | ≤ 0.2
80 | HMDT | ≤ 0.2
81 | LPPM | ≤ 0.2
82 | GNHS | ≤ 0.2
83 | DWMC | ≤ 0.2
84 | AFMV | ≤ 0.2
85 | ATLS | ≤ 0.2
86 | GKGS | ≤ 0.2
87 | THAY | ≤ 0.2
88 | KYDS | ≤ 0.2
89 | CGLS | ≤ 0.2
90 | ILRM | ≤ 0.2
91 | NSKA | ≤ 0.2
92 | RCKI | ≤ 0.2
93 | DKKS | ≤ 0.2
94 | WSPG | ≤ 0.2
95 | KWGG | ≤ 0.2
96 | TRHW | ≤ 0.2
97 | QNYP | ≤ 0.2
98 | TASG | ≤ 0.2
99 | HFYG | ≤ 0.2
100 | LRRL | ≤ 0.2
101 | LCDP | ≤ 0.2
102 | ANWL | ≤ 0.2
103 | WRLW | ≤ 0.2
104 | NFAR | ≤ 0.2

Row | Variant | one-hybrid fitness for binding NBS DNA
105 | PEQN | ≤ 0.2
106 | VDAA | ≤ 0.2
107 | LAKL | ≤ 0.2
108 | AASG | ≤ 0.2
109 | RNHD | ≤ 0.2
110 | VNIL | ≤ 0.2
111 | IFRA | ≤ 0.2
112 | PMHC | ≤ 0.2
113 | PITA | ≤ 0.2
114 | GYKG | ≤ 0.2
115 | SNNG | ≤ 0.2
116 | RTPA | ≤ 0.2
117 | HSNI | ≤ 0.2
118 | VDHS | ≤ 0.2
119 | PCEY | ≤ 0.2
120 | LRWW | ≤ 0.2
121 | TFSR | ≤ 0.2
122 | HTPG | ≤ 0.2
123 | PCIR | ≤ 0.2
124 | IGHT | ≤ 0.2
125 | VLSE | ≤ 0.2
126 | EKSE | ≤ 0.2
127 | KKKT | 0.427
128 | ELNL | ≤ 0.2
129 | LLDK | ≤ 0.2
130 | TMLA | ≤ 0.2

Row | Variant | one-hybrid fitness for binding NBS DNA
131 | YNPE | ≤ 0.2
132 | CIPR | ≤ 0.2
133 | AEQS | ≤ 0.2
134 | CTDH | ≤ 0.2
135 | TDKT | ≤ 0.2
136 | RPEG | ≤ 0.2
137 | KTYA | ≤ 0.2
138 | QHEC | ≤ 0.2
139 | LSIY | ≤ 0.2
140 | RFEV | ≤ 0.2
141 | ISTS | ≤ 0.2
142 | GLIG | ≤ 0.2
143 | VSAS | ≤ 0.2
144 | TAFI | ≤ 0.2
145 | PMMS | ≤ 0.2
146 | PQPL | ≤ 0.2
147 | EIQL | ≤ 0.2
148 | HRVK | ≤ 0.2
149 | KATQ | ≤ 0.2
150 | YEYS | ≤ 0.2
151 | VESS | ≤ 0.2
152 | GDCG | ≤ 0.2
153 | DLHR | ≤ 0.2
